Assay results as given in a collection of fitness landscapes (doi:10.1016/j.celrep.2020.107928).
In all, about 81,000 sequences were measured (“one-hybrid fitness for binding NBS DNA”: median about -0.1, highest 2% from about 0.36 on). This is one part of the list.

B1: Caulobacter ParB omega fusion; a variant is named by its letters at X, in order, B8GW30 (parent)
chain: MESVVVGEPGMSEGRRGLGRGLSALLGEVDAAPAQAPGEQLGGSREAPIEILQRNPDQPRRTFREEDLEDLSNSIREKGVLQPILVRPSPDTAGEYQIVAGERAWRAAQRAGLKTVPIMVRELDDLAVLEIGIIENVQRADLNVLEEALSYKVLMEKFERTQENIAQTIGKSXSHVANXMRLLXLPDEVQSYLVSGELTAXHARAIAAAADPVALAKQIIEGGLSVRETEALARKAPNLSAGKSKGGRPPRVKDTDTQALESDLSSVLGLDVSIDHRGSTGTLTITYATLEQLDDLCNRLTRGI

Variants of: B1
Assay: one-hybrid fitness for binding NBS DNA (the Noc-binding site; scaled: cognate 1, non-cognate 0); higher = stronger binding
Settings: with NBS DNA site
Procedure, shortened: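 The reporter was HIS3, with the binding site 19 bp from the promoter, in E. coli USO used for bacterial one-hybrid selection of Caulobacter ParB libraries with four specificity codons randomised. Growth was on M9 lacking histidine, with 0.1 mM IPTG and 5 mM 3-AT, for 48 hours at 37°C. Illumina sequencing covered plasmids before and after selection; three replicate libraries were pooled and variants with under 10 reads dropped. A fitness score is the log change in variant-to-wild-type read ratio, rescaled to the cognate and non-cognate references.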

| Variant | one-hybrid fitness for binding NBS DNA |
| --- | --- |
| WLPS | ≤ 0.2 |
| PMTC | ≤ 0.2 |
| GRRY | ≤ 0.2 |
| NTGW | ≤ 0.2 |
| KHNV | ≤ 0.2 |
| RAKI | ≤ 0.2 |
| SSCL | ≤ 0.2 |
| APMV | ≤ 0.2 |
| SWSK | ≤ 0.2 |
| AIKT | ≤ 0.2 |
| QARV | 0.376 |
| HCAT | ≤ 0.2 |
| NQLM | ≤ 0.2 |
| LHRR | ≤ 0.2 |
| QRFE | ≤ 0.2 |
| QMQT | 0.392 |
| SQCT | ≤ 0.2 |
| HKRP | ≤ 0.2 |
| TRWG | ≤ 0.2 |
| FMGT | ≤ 0.2 |
| RHCE | ≤ 0.2 |
| LYQC | ≤ 0.2 |
| KRYW | ≤ 0.2 |
| CFKS | ≤ 0.2 |
| AYAR | ≤ 0.2 |

| Variant | one-hybrid fitness for binding NBS DNA |
| --- | --- |
| QMFY | ≤ 0.2 |
| WHYV | ≤ 0.2 |
| CKVS | ≤ 0.2 |
| LWWG | ≤ 0.2 |
| KQWT | ≤ 0.2 |
| YTDG | ≤ 0.2 |
| CLYT | ≤ 0.2 |
| YFCV | ≤ 0.2 |
| NRDG | ≤ 0.2 |
| SVAP | ≤ 0.2 |
| GMCY | ≤ 0.2 |
| KPLC | ≤ 0.2 |
| FAKL | ≤ 0.2 |
| RSYF | ≤ 0.2 |
| DPPC | ≤ 0.2 |
| TCLY | ≤ 0.2 |
| TMTR | ≤ 0.2 |
| QWMI | ≤ 0.2 |
| NGTL | ≤ 0.2 |
| TRRL | ≤ 0.2 |
| WVDS | ≤ 0.2 |
| AHFS | ≤ 0.2 |
| LYGY | ≤ 0.2 |
| AEPV | ≤ 0.2 |
| AFQC | ≤ 0.2 |

| Variant | one-hybrid fitness for binding NBS DNA |
| --- | --- |
| FNTR | ≤ 0.2 |
| TSVK | ≤ 0.2 |
| RQCN | ≤ 0.2 |
| MLTV | ≤ 0.2 |
| KHVG | ≤ 0.2 |
| KKLP | ≤ 0.2 |
| MTCP | ≤ 0.2 |
| KCHT | ≤ 0.2 |
| HWLR | ≤ 0.2 |
| RFNY | ≤ 0.2 |
| AASQ | ≤ 0.2 |
| YLAG | ≤ 0.2 |
| YYAG | ≤ 0.2 |
| AMGL | ≤ 0.2 |
| CVWT | ≤ 0.2 |
| MIQG | ≤ 0.2 |
| DRNV | ≤ 0.2 |
| DASD | ≤ 0.2 |
| KSDG | ≤ 0.2 |
| DRFC | ≤ 0.2 |
| NIQG | ≤ 0.2 |
| HLKC | ≤ 0.2 |
| TAAH | ≤ 0.2 |
| TITT | ≤ 0.2 |
| LWPL | ≤ 0.2 |

| Variant | one-hybrid fitness for binding NBS DNA |
| --- | --- |
| QYTE | ≤ 0.2 |
| TRLA | ≤ 0.2 |
| RWLE | ≤ 0.2 |
| QRMF | 0.25 |
| SSNK | ≤ 0.2 |
| FFPR | ≤ 0.2 |
| NNYQ | ≤ 0.2 |
| CPYA | ≤ 0.2 |
| LGGS | ≤ 0.2 |
| ADRM | ≤ 0.2 |
| RIVT | 0.243 |
| VMLI | ≤ 0.2 |
| NVYN | ≤ 0.2 |
| NTYV | ≤ 0.2 |
| ISII | ≤ 0.2 |
| RNEH | ≤ 0.2 |
| TPKV | ≤ 0.2 |
| FHMS | ≤ 0.2 |
| NRWS | ≤ 0.2 |
| TWDR | ≤ 0.2 |
| LREI | ≤ 0.2 |
| PSLH | ≤ 0.2 |
| DIDV | ≤ 0.2 |
| RVWE | ≤ 0.2 |
| KYAF | ≤ 0.2 |

| Variant | one-hybrid fitness for binding NBS DNA |
| --- | --- |
| CLES | ≤ 0.2 |
| CGAL | ≤ 0.2 |
| KYGG | ≤ 0.2 |
| RHSV | ≤ 0.2 |
| PVNT | ≤ 0.2 |
| MYIP | ≤ 0.2 |
| SPPC | ≤ 0.2 |
| SSYR | ≤ 0.2 |
| PGPG | ≤ 0.2 |
| DAMS | ≤ 0.2 |
| VQVL | ≤ 0.2 |
| GKQG | ≤ 0.2 |
| PVVS | ≤ 0.2 |
| QGRD | ≤ 0.2 |
| RDNL | ≤ 0.2 |
| KQNL | ≤ 0.2 |
| ICGA | ≤ 0.2 |
| PIRC | ≤ 0.2 |
| TVHG | ≤ 0.2 |
| AHWW | ≤ 0.2 |
| PYYL | ≤ 0.2 |
| LARA | ≤ 0.2 |
| CFFG | ≤ 0.2 |
| IRYM | ≤ 0.2 |
| QDSW | ≤ 0.2 |

| Variant | one-hybrid fitness for binding NBS DNA |
| --- | --- |
| WVEG | ≤ 0.2 |
| NMVG | ≤ 0.2 |
| KMYG | ≤ 0.2 |
| LSRW | ≤ 0.2 |
| KRIH | ≤ 0.2 |
| PTEL | ≤ 0.2 |
| ELTK | ≤ 0.2 |
| ASPD | ≤ 0.2 |
| VALM | ≤ 0.2 |
| NYTH | ≤ 0.2 |
| WILS | ≤ 0.2 |
| HLAY | ≤ 0.2 |
| CKKS | ≤ 0.2 |
| KKQG | ≤ 0.2 |
| TKMC | ≤ 0.2 |
| KFIS | ≤ 0.2 |
| RSIQ | ≤ 0.2 |
| CMIS | ≤ 0.2 |
| VTRV | ≤ 0.2 |
| LQTY | ≤ 0.2 |
| PNHT | ≤ 0.2 |
| WDRL | ≤ 0.2 |
| GVET | ≤ 0.2 |
| YGSV | ≤ 0.2 |
| PNWS | ≤ 0.2 |

| Variant | one-hybrid fitness for binding NBS DNA |
| --- | --- |
| LGNV | ≤ 0.2 |
| MNLL | ≤ 0.2 |
| PTCF | ≤ 0.2 |
| HDLR | ≤ 0.2 |
| GPAV | ≤ 0.2 |
| PYPK | ≤ 0.2 |
| RMMC | ≤ 0.2 |
| STTW | ≤ 0.2 |
| FNAS | ≤ 0.2 |
| VRFG | ≤ 0.2 |
| NGGR | ≤ 0.2 |
| PEAL | ≤ 0.2 |
| CTYR | ≤ 0.2 |
| QNHP | ≤ 0.2 |
| ATDG | ≤ 0.2 |
| QSQR | 0.535 |
| CANT | ≤ 0.2 |
| AILM | ≤ 0.2 |
| SSDL | ≤ 0.2 |
| PKTQ | ≤ 0.2 |
| QQRQ | 0.421 |
| SEAF | ≤ 0.2 |
| DIKT | ≤ 0.2 |
| RNVR | ≤ 0.2 |
| FSWS | ≤ 0.2 |

| Variant | one-hybrid fitness for binding NBS DNA |
| --- | --- |
| RRMI | ≤ 0.2 |
| TSRC | ≤ 0.2 |
| RQLP | ≤ 0.2 |
| VTYG | ≤ 0.2 |
| RIRT | 0.615 |
| RQDE | ≤ 0.2 |
| TEGG | ≤ 0.2 |
| ACAC | ≤ 0.2 |
| WRNN | ≤ 0.2 |
| CTHN | ≤ 0.2 |
| PVLQ | ≤ 0.2 |
| HGIL | ≤ 0.2 |
| HTPR | ≤ 0.2 |
| RQIW | ≤ 0.2 |
| KPKC | ≤ 0.2 |
| IPGL | ≤ 0.2 |
| FLRI | ≤ 0.2 |
| LMKI | ≤ 0.2 |
| CYHW | ≤ 0.2 |
| RQLM | ≤ 0.2 |
